# Assay results reported in the supplement of paper PMC8728848.
# This is one part of the list.
# Tests used:
# Test in all cases: glycan array binding signal (z-score within array); higher = stronger binding
# Settings in all cases: glycan notation: IUPAC condensed, linker removed
# Fuc(a1-2)Gal = biological target: Fuc(a1-2)Gal
# Procedure, shortened: (§1)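 The binding signal is a Z-score computed within each array and averaged over linkers. Arrays of the same protein sequence at different concentrations or buffers were also averaged together. Data originate from 3228 arrays in the Consortium for Functional Glycomics database, kept only where the protein sequence was available.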
# Fuc(a1-2)Gal(b1-3)GalNAc = biological target: Fuc(a1-2)Gal(b1-3)GalNAc
# Procedure, shortened: as §1
# [1] = biological target: Fuc(a1-2)Gal(b1-3)GalNAc(a1-3)[Fuc(a1-2)]Gal(b1-4)Glc
# Procedure, shortened: as §1
# [2] = biological target: Fuc(a1-2)Gal(b1-3)GalNAc(a1-3)[Fuc(a1-2)]Gal(b1-4)GlcNAc
# Procedure, shortened: as §1
# [3] = biological target: Fuc(a1-2)Gal(b1-3)GalNAc(b1-3)Gal
# Procedure, shortened: as §1
# [4] = biological target: Fuc(a1-2)Gal(b1-3)GalNAc(b1-3)Gal(a1-4)Gal(b1-4)Glc
# Procedure, shortened: as §1
# [5] = biological target: Fuc(a1-2)Gal(b1-3)GalNAc(b1-4)[Neu5Ac(a2-3)]Gal(b1-4)Glc
# Procedure, shortened: as §1
# Fuc(a1-2)Gal(b1-3)GlcNAc = biological target: Fuc(a1-2)Gal(b1-3)GlcNAc
# Procedure, shortened: as §1
# [6] = biological target: Fuc(a1-2)Gal(b1-3)GlcNAc(b1-2)Man(a1-3)[Fuc(a1-2)Gal(b1-3)GlcNAc(b1-2)Man(a1-6)]Man(b1-4)GlcNAc(b1-4)GlcNAc
# Procedure, shortened: as §1
# [7] = biological target: Fuc(a1-2)Gal(b1-3)GlcNAc(b1-2)Man(a1-3)[Fuc(a1-2)Gal(b1-3)GlcNAc(b1-2)Man(a1-6)]Man(b1-4)GlcNAc(b1-4)[Fuc(a1-6)]GlcNAc
# Procedure, shortened: as §1
# [8] = biological target: Fuc(a1-2)Gal(b1-3)GlcNAc(b1-3)Gal(b1-4)Glc
# Procedure, shortened: as §1
# [9] = biological target: Fuc(a1-2)Gal(b1-3)GlcNAc(b1-3)GalNAc
# Procedure, shortened: as §1
# [10] = biological target: Fuc(a1-2)Gal(b1-3)GlcNAc(b1-3)[Fuc(a1-2)Gal(b1-3)GlcNAc(b1-6)]GalNAc
# Procedure, shortened: as §1
# [11] = biological target: Fuc(a1-2)Gal(b1-3)GlcNAc(b1-3)[Gal(b1-4)GlcNAc(b1-6)]Gal(b1-4)Glc
# Procedure, shortened: as §1
# [12] = biological target: Fuc(a1-2)Gal(b1-3)GlcNAc(b1-3)[Neu5Ac(a2-6)Gal(b1-4)GlcNAc(b1-6)]Gal(b1-4)Glc
# Procedure, shortened: as §1
# [13] = biological target: Fuc(a1-2)Gal(b1-3)GlcNAc6S
# Procedure, shortened: as §1
# [14] = biological target: Fuc(a1-2)Gal(b1-3)[Fuc(a1-4)]GlcNAc
# Procedure, shortened: as §1
# [15] = biological target: Fuc(a1-2)Gal(b1-3)[Fuc(a1-4)]GlcNAc(b1-2)Man(a1-3)[Fuc(a1-2)Gal(b1-3)[Fuc(a1-4)]GlcNAc(b1-2)Man(a1-3)]Man(b1-4)GlcNAc(b1-4)GlcNAc
# Procedure, shortened: as §1
# [16] = biological target: Fuc(a1-2)Gal(b1-3)[Fuc(a1-4)]GlcNAc(b1-2)Man(a1-3)[Fuc(a1-2)Gal(b1-3)[Fuc(a1-4)]GlcNAc(b1-2)Man(a1-6)]Man(b1-4)GlcNAc(b1-4)[Fuc(a1-6)]GlcNAc(b1-4)[Fuc(a1-6)]GlcNAc
# Procedure, shortened: as §1
# [17] = biological target: Fuc(a1-2)Gal(b1-3)[Fuc(a1-4)]GlcNAc(b1-3)[Fuc(a1-3)[Gal(b1-4)]GlcNAc(b1-6)]Gal(b1-4)Glc
# Procedure, shortened: as §1
# [18] = biological target: Fuc(a1-2)Gal(b1-3)[Fuc(a1-4)]GlcNAc(b1-3)[Gal(b1-4)GlcNAc(b1-6)]Gal(b1-4)Glc
# Procedure, shortened: as §1
# [19] = biological target: Fuc(a1-2)Gal(b1-4)Fuc(a1-3)]GlcNAc(b1-2)Man(a1-3)[Fuc(a1-2)Gal(b1-4)[Fuc(a1-3)]GlcNAc(b1-2)Man(a1-6)]Man(b1-4)GlcNAc(b1-4)GlcNAc
# Procedure, shortened: as §1
# Fuc(a1-2)Gal(b1-4)Glc = biological target: Fuc(a1-2)Gal(b1-4)Glc
# Procedure, shortened: as §1
# Fuc(a1-2)Gal(b1-4)Glc6S = biological target: Fuc(a1-2)Gal(b1-4)Glc6S
# Procedure, shortened: as §1
# Fuc(a1-2)Gal(b1-4)GlcNAc = biological target: Fuc(a1-2)Gal(b1-4)GlcNAc
# Procedure, shortened: as §1
# [20] = biological target: Fuc(a1-2)Gal(b1-4)GlcNAc(b1-2)Man
# Procedure, shortened: as §1
# [21] = biological target: Fuc(a1-2)Gal(b1-4)GlcNAc(b1-2)Man(a1-3)[Fuc(a1-2)Gal(b1-4)GlcNAc(b1-2)Man(a1-6)]Man(b1-4)GlcNAc(b1-4)GlcNAc
# Procedure, shortened: as §1
# [22] = biological target: Fuc(a1-2)Gal(b1-4)GlcNAc(b1-2)Man(a1-3)[Fuc(a1-2)Gal(b1-4)GlcNAc(b1-2)Man(a1-6)]Man(b1-4)GlcNAc(b1-4)[Fuc(a1-6)]GlcNAc
# Procedure, shortened: as §1
# [23] = biological target: Fuc(a1-2)Gal(b1-4)GlcNAc(b1-2)[Fuc(a1-2)Gal(b1-4)GlcNAc(b1-4)]Man(a1-3)[Fuc(a1-2)Gal(b1-4)GlcNAc(b1-2)Man(a1-6)]Man(b1-4)GlcNAc(b1-4)GlcNAc
# Procedure, shortened: as §1
# [24] = biological target: Fuc(a1-2)Gal(b1-4)GlcNAc(b1-3)Gal(b1-4)GlcNAc
# Procedure, shortened: as §1
# [25] = biological target: Fuc(a1-2)Gal(b1-4)GlcNAc(b1-3)Gal(b1-4)GlcNAc(b1-2)Man(a1-3)[Fuc(a1-2)Gal(b1-4)GlcNAc(b1-3)Gal(b1-4)GlcNAc(b1-2)Man(a1-6)]Man(b1-4)GlcNAc(b1-4)GlcNAc
# Procedure, shortened: as §1
# [26] = biological target: Fuc(a1-2)Gal(b1-4)GlcNAc(b1-3)Gal(b1-4)GlcNAc(b1-3)Gal(b1-4)GlcNAc
# Procedure, shortened: as §1
# [27] = biological target: Fuc(a1-2)Gal(b1-4)GlcNAc(b1-3)GalNAc
# Procedure, shortened: as §1
# [28] = biological target: Fuc(a1-2)Gal(b1-4)GlcNAc(b1-3)[Fuc(a1-2)Gal(b1-4)GlcNAc(b1-6)]GalNAc
# Procedure, shortened: as §1
# [29] = biological target: Fuc(a1-2)Gal(b1-4)GlcNAc(b1-3)[Fuc(a1-3)[Gal(b1-4)]GlcNAc(b1-6)]Gal(b1-4)Glc
# Procedure, shortened: as §1
# [30] = biological target: Fuc(a1-2)Gal(b1-4)GlcNAc(b1-6)GalNAc
# Procedure, shortened: as §1
# [31] = biological target: Fuc(a1-2)Gal(b1-4)GlcNAc6S
# Procedure, shortened: as §1
binder,measurement,setting,value
"DC-Sign (Homo sapiens), Q9NNX6 (protein) MSDSKEPRLQQLGLLEEEQLRGLGFRQTRGYKSLAGCLGHGPLVLQLLSFTLLAGLLVQVSKVPSSISQEQSRQDAIYQNLTQLKAAVGELSEKSKLQEIYQELTQLKAAVGELPEKSKLQEIYQELTRLKAAVGELPEKSKLQEIYQELTWLKAAVGELPEKSKMQEIYQELTRLKAAVGELPEKSKQQEIYQELTRLKAAVGELPEKSKQQEIYQELTRLKAAVGELPEKSKQQEIYQELTQLKAAVERLCHPCPWEWTFFQGNCYFMSNSQRNWHDSITACKEVGAQLVVIKSAEEQNFLQLQSSRSNRFTWMGLSDLNQEGTWQWVDGSPLLPSFKQYWNRGEPNNVGEEDCAEFSGNGWNDDKCNLAKFWICKKSAASCSRDEEQFLSPAPATPNPPPA",glycan array binding signal (z-score),Fuc(a1-2)Gal,-0.114
same,glycan array binding signal (z-score),Fuc(a1-2)Gal(b1-3)GalNAc,-0.18
same,glycan array binding signal (z-score),[1],-0.156
same,glycan array binding signal (z-score),[2],-0.14
same,glycan array binding signal (z-score),[3],-0.179
same,glycan array binding signal (z-score),[4],-0.182
same,glycan array binding signal (z-score),[5],-0.149
same,glycan array binding signal (z-score),Fuc(a1-2)Gal(b1-3)GlcNAc,-0.18
same,glycan array binding signal (z-score),[6],-0.081
same,glycan array binding signal (z-score),[7],-0.105
same,glycan array binding signal (z-score),[8],-0.169
same,glycan array binding signal (z-score),[9],-0.169
same,glycan array binding signal (z-score),[10],-0.167
same,glycan array binding signal (z-score),[11],-0.175
same,glycan array binding signal (z-score),[12],-0.041
same,glycan array binding signal (z-score),[13],-0.129
same,glycan array binding signal (z-score),[14],-0.096
same,glycan array binding signal (z-score),[15],-0.134
same,glycan array binding signal (z-score),[16],-0.156
same,glycan array binding signal (z-score),[17],-0.025
same,glycan array binding signal (z-score),[18],-0.093
same,glycan array binding signal (z-score),[19],-0.142
same,glycan array binding signal (z-score),Fuc(a1-2)Gal(b1-4)Glc,-0.13
same,glycan array binding signal (z-score),Fuc(a1-2)Gal(b1-4)Glc6S,-0.19
same,glycan array binding signal (z-score),Fuc(a1-2)Gal(b1-4)GlcNAc,-0.129
same,glycan array binding signal (z-score),[20],-0.164
same,glycan array binding signal (z-score),[21],-0.167
same,glycan array binding signal (z-score),[22],-0.182
same,glycan array binding signal (z-score),[23],-0.174
same,glycan array binding signal (z-score),[24],-0.175
same,glycan array binding signal (z-score),[25],1.11
same,glycan array binding signal (z-score),[26],-0.142
same,glycan array binding signal (z-score),[27],-0.15
same,glycan array binding signal (z-score),[28],-0.181
same,glycan array binding signal (z-score),[29],-0.077
same,glycan array binding signal (z-score),[30],-0.16
same,glycan array binding signal (z-score),[31],-0.179
